Measurements: article PMC12136788
This is one part of the list.

T1: UNK ZnF1-3 (human, UniProt Q9C0B0 31-174)
T1 sequence: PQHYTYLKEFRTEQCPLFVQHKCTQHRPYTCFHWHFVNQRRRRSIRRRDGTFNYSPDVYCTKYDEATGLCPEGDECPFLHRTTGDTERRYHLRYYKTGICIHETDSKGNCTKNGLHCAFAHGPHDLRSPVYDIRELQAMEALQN

B1: chr15:41988372:41988373:+_ENSG00000174197_ENST00000570161|hu_hu|motif|central (ssRNA)
RNA: GGGAGUUCUACAGUCCGACGAUCUGUCUCUUCCUGUUUCACAGUGACCCCUUCUGGGCACUCACCAAGUUCGUAGUCAUAAUCAUCGGGAGGUUCCUCUUUAAUAACAACAUUGAAGCUUCCGUUCUGGUCUAACGGUGAGGCCAACAGAGGAUUGAGCAUCA
B2: chr5:145543945:145543946:-_ENSG00000133706_ENST00000545646|hu_hu|hu_hu_hu_mus_True|48_78 (ssRNA)
RNA: GGGAGUUCUACAGUCCGACGAUCCUGAACGGCCAGUGGUGGGAAAUAAUCAAGCCAAUGUUCUGCUUCAGAAAACUUCACUAUGUCUUCAUCAGACAGCCCAAGGGAUUUCAUAAUGUCCCACUGGUACUUAGAAGAUCCUGCCAACAGAGGAUUGAGCAUCA
B3: 153533148_153533268_1283_CDS_ENSG00000196504_ENST00000410080|human|control|control (ssRNA)
RNA: GGGAGUUCUACAGUCCGACGAUCGGCUGCAGCUGCUGCUGCUGCUGCCGCUGCUGCUGCUGCAACAACAGCAGCUGCUGCUUCGGCAGCAGCCAUGGUGCUCAUUGUGGUCGGAAUUUCUGUUGUAGGGACUGGGGCUGUUGACAACAGAGGAUUGAGCAUCA
B4: chrX:71549400:71549401:+_ENSMUSG00000019087_ENSMUST00000019231|mus_hu|mus_mus_mus_hu_False|58_68 (ssRNA)
RNA: GGGAGUUCUACAGUCCGACGAUCGCAGUAGGAAGAGGGAAGCUCUUCAGUCCAGUGCGCUGCAGGGAGAAACAUGACAACCUAGACCACCGUCCCACCCUCAACCCCCCCACUGGCACAGGGUCACACAAUCUGGGUCAAAGACAACAGAGGAUUGAGCAUCA
B5: chr12:54126753:54126754:+_ENSMUSG00000061603_ENSMUST00000095737|mus_mus|FALSE|FALSE (ssRNA)
RNA: GGGAGUUCUACAGUCCGACGAUCCUGCUCCUCUGACAUCAUCAGGUCGUGGCUGUCCAUCACAAGGGACUCCAUGUCAAUCAGCCAAUCCCAGAGCUCCUGAUAUUCUGAAUCAAAGUCCAGAAGCCCAUUGCUUCCCACCGACAACAGAGGAUUGAGCAUCA
B6: chr7:54825262:54825263:-_ENSG00000132432_ENST00000352861|hu_hu|hu_hu_hu_mus_False|68_68 (ssRNA)
RNA: GGGAGUUCUACAGUCCGACGAUCCUGCCGGCUGGGCUCCACAAACUGCAUUACCUGAUCCAUGUUUUACCCAACCGGGAUUGAGAGCGUAGAGACACGUAGCUCAGGAGAGAACCGAGCCCAACGGAACCGGAAGCUGGCAACCAACAGAGGAUUGAGCAUCA
B7: 58102184_58102304_1280_3pUTR_ENSG00000171649_ENST00000597850|human|control|control (ssRNA)
RNA: GGGAGUUCUACAGUCCGACGAUCUCCAGUGUGAAUUCUUCGGUGUUGAUUAAGAAUGGCACUUUGACUAAAGGAAUUCCCACAUUCACCACACUUAUAAGGCCUUUCUCCAGUGUGAACUCUUUGGUGUUUAACAAGGGUGGCCAACAGAGGAUUGAGCAUCA
B8: chr19:47151266:47151267:-_ENSG00000197380_ENST00000391916|hu_mus|motif|central (ssRNA)
RNA: GGGAGUUCUACAGUCCGACGAUCACUCUGUAGGCAUAACCUGAGUCAGACAGUCUCUGACUUGGGGGCCCCAGGGGGUAUCCGGAGGGUCCAGGGACAUGGAGGGGGCACUUUGUGAAUGAGAAGGGGACCCUAUCUGGGCAACAACAGAGGAUUGAGCAUCA
B9: chr10:33214929:33214930:-_ENSG00000150093_ENST00000302278|hu_hu|hu_hu_hu_mus_True|8_38 (ssRNA)
RNA: GGGAGUUCUACAGUCCGACGAUCAACAAGUUCAUUGAAAAACUCUCCUCUGUCAGUAAGACUAAGCACAUUUUUGUAGCUAAAUGGGCUGGUGCAGUUCUGUUCACUUGUACAAGGAUUUCUUAGCUUAGCUGGUGUUGUGCUCAACAGAGGAUUGAGCAUCA
B10: chr14:78183846:78183847:+_ENSG00000119705_ENST00000557342|hu_hu|hu_hu_hu_mus_False|28_68 (ssRNA)
RNA: GGGAGUUCUACAGUCCGACGAUCUCUCAGAAAUCUUUCUUCAUCAGAUGUUUGAGCUCCGUGCAAAAGUUUUGGCCUUUGAGCUUGAACGUGGAUCUAUGGGAGGGCUAUAAUAUGCAGAAAAGGUAAUUUUUUUUUUAAAGACAACAGAGGAUUGAGCAUCA
B11: chr2:232320318:232320319:-_ENSG00000115053_ENST00000322723|hu_hu|hu_hu_hu_mus_True|78_78 (ssRNA)
RNA: GGGAGUUCUACAGUCCGACGAUCACUAUUAAAGUCUACAAAACCAAACCCUUUGGAGGACCCAGUUUCCCGAUCAGUGACUAUUCUUGCACGAACAGAGCCCUCAAAUGAUUCUUUUAAGGUCUCUUCAGUGGUAUCCUCAGACAACAGAGGAUUGAGCAUCA
B12: chr8:117878989:117878990:-_ENSG00000164754_ENST00000297338|hu_hu|hu_hu_hu_mus_True|18_18 (ssRNA)
RNA: GGGAGUUCUACAGUCCGACGAUCCCAGAGGCCCUCGUUUACUGAGGACAAAAUGUGCGUAGAACAUUUUUCUUAUUUGCUAUGAAAUAAGAAGAAACCUGGAUCUCGGCGGGGAGCUUGGGCGGGCGGGUGGCCCGGGGAGGGCAACAGAGGAUUGAGCAUCA
B13: chr18:58105177:58105178:+_ENSMUSG00000024597_ENSMUST00000115366|mus_mus|FALSE|FALSE (ssRNA)
RNA: GGGAGUUCUACAGUCCGACGAUCUAACGUCUUGCUUGACCUGACUUGACUGUUUACUUAAAAAAAGAAAAAGAAAAAACUAAAACAACAACAAAAAAAUAUCUGUAAUCUACCAAAUCGUGAUCACUUUAAAAUCUGAAACACCAACAGAGGAUUGAGCAUCA
B14: chr14:22137345:22137346:+_ENSMUSG00000039197_ENSMUST00000045376|mus_mus|FALSE|FALSE (ssRNA)
RNA: GGGAGUUCUACAGUCCGACGAUCAAAGAGGAUAUCAACAUAAGGCAUGACGUCCAUCAAGGCUUCCUUGAAGAACUGGCUAAUGAACGGUGCAGACAGGUUCAAAGUGAAGACCCUGUUGUUCUCGGCAGCAUAGCGAGCCACCAACAGAGGAUUGAGCAUCA
B15: chr13:17810563:17810564:-_ENSMUSG00000041297_ENSMUST00000042365|mus_hu|FALSE|FALSE (ssRNA)
RNA: GGGAGUUCUACAGUCCGACGAUCAGCAAGCAGCUGUAACAGGGCUGCCUUCACUCCGGCAUGAGGGUCAGUUAAUGAAGAACUGGUGGUGGGUACAUGCUGGUUUUCUGUCCGAUAAUCUAGAUCUUCCUCAGUGACUGGUGGCAACAGAGGAUUGAGCAUCA
B16: 14291001_14291121_801_CDS_ENSG00000038382_ENST00000344204|human|control|control (ssRNA)
RNA: GGGAGUUCUACAGUCCGACGAUCUCCCUCCAAAUCCAGGUCCUCGAUGGGGGCCUUAAUCACCUUCUUCUUCAGCUGAGAAUGUUCCUCGAUCAUAUUCCGAGCCCCCUCUAAAUCCUGAGGCAGCUCCUUCUUAGCUAGGAUCAACAGAGGAUUGAGCAUCA
B17: chr9:95013113:95013114:-_ENSG00000196305_ENST00000443024|hu_hu|hu_hu_hu_mus_False|98_108 (ssRNA)
RNA: GGGAGUUCUACAGUCCGACGAUCCUCAGUGAGAAAAGGUGUGUAGGGGGCCAUCAGUCUGCACAGAGAAAGCAGGACACUGAACAGUGUCUCCAGAGCCAUGACACAGUCUUCCACCCCACUCUCACCCUUUAACCUCCUCCUCAACAGAGGAUUGAGCAUCA
B18: chr11:23185130:23185131:+_ENSMUSG00000020290_ENSMUST00000020538|mus_hu|motif|central (ssRNA)
RNA: GGGAGUUCUACAGUCCGACGAUCAAAUGGCAUCACUUCUCCAACCUGAACCUGAACGAAAUGCCUGCGGCAUUUUUGGGCGGUUUUAAUGAAAGUAUCACAAGCCAUAUCCUGGACUCCAUCAUGGGUCUCAUGCAUGAAUUCCAACAGAGGAUUGAGCAUCA
B19: chr1:225611761:225611762:-_ENSG00000143815_ENST00000272163|hu_mus|hu_hu_hu_mus_True|18_28 (ssRNA)
RNA: GGGAGUUCUACAGUCCGACGAUCCCAGGCCAUCGGCCUCUGACCACUUCACCCUCAACAAACUUCCUACUUGGCAUUUUCUAAAAUUAGUCUGGCCGCGCUCCGGCCGGUGACACGGACGGCUCCCGACAGUCACCAGCAGCCCAACAGAGGAUUGAGCAUCA
B20: chr7:19736620:19736621:-_ENSG00000105849_ENST00000222567|hu_hu|FALSE|FALSE (ssRNA)
RNA: GGGAGUUCUACAGUCCGACGAUCCAUUGUCUAGCACAUCUACUUGUAGACAAUUGUGAACAUCUGCCACUCUGCCAAUUCUAUAUCCCAUCAUUGUAAGUUCAGAUCAACAUAUACCACUAGCAGAAUUUAUUCAUUACCAAACAACAGAGGAUUGAGCAUCA
B21: chr5:162900210:162900211:+_ENSG00000072571_ENST00000358715|hu_mus|FALSE|FALSE (ssRNA)
RNA: GGGAGUUCUACAGUCCGACGAUCUUGGAUGUAUUCUAAGAGUUUUUCUGUUUCACAUUUUUCAUCGAUCUUUUCUUUCUCUAUUGAAACAAGCUUUCCCUCCAGCUGGACUAUUUUUCCCUUAGACUCCGUGAGGUCCUUCUGCAACAGAGGAUUGAGCAUCA
B22: 20922476_20924523_344_3pUTR_ENSG00000124422_ENST00000537526|human|control|control (ssRNA)
RNA: GGGAGUUCUACAGUCCGACGAUCGUUGAAAACUUCUCUCCAACGCCUUGCAUUUUCCAAGCUUUUCGCUGCUCCUCCUUGGCGAUUAUUUCCAUGUCUUUGUCAUAGAUGUAGUCCUGGCACAGAAAACAGUAGAUGCCUCCGCAACAGAGGAUUGAGCAUCA

These binders were tested against T1, UNK ZnF1-3 (assay: nsRBNS (natural sequence RNA bind-n-seq); RBNS binding buffer (assumed for nsRBNS): 25 mM Tris pH 7.5, 150 mM KCl, 3 mM MgCl2, 0.01% Triton X-100, 500 ug/ml BSA, 20 U/ml SUPERase-In, 4 C; UNK is unkempt and MSI1 is Musashi-1; names of the RNAs are library labels; protein concentration not given here; high values mean tight binding).

Row | Binder | binding signal [enrichment R]
1 | B1 | 0.861
2 | B2 | 0.752
3 | B3 | 0.774
4 | B4 | 2.04
5 | B5 | 1.24
6 | B6 | 0.92
7 | B7 | 0.883
8 | B8 | 1.3
9 | B9 | 0.928
10 | B10 | 2.4
11 | B11 | 0.422
12 | B12 | 1.26
13 | B13 | 3.19
14 | B14 | 0.96
15 | B15 | 2.38
16 | B16 | 0.804
17 | B17 | 1.34
18 | B18 | 0.838
19 | B19 | 1.21
20 | B20 | 1.3
21 | B21 | 0.307
22 | B22 | 0.624
